Measured values: the supplement of paper PMC4967469
A lower IC50 marks a more sensitive line; where the fit passes the top or lowest dose, that dose stands as a limit. AUC, from the same fit, is the share of area under the viability curve across the 256-fold dose range; the more sensitive the line, the further below 1. A top dose marked as inferred was derived from the fitted curves, not read from the paper.

Tests used:
[1] = compound: O=C(/C=C/c1cccnc1)NCCCCC1CCN(C(=O)c2ccccc2)CC1 [FK866]; assay: Viability of human cancer cell lines after 72 h of drug (GDSC screen); conditions: top dose 1 µM; top dose inferred
Description: (§1)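 Human cancer cell lines in 384-well plates, medium with 10% serum, drug for 72 h over a 256-fold dose range (nine 2-fold or five 4-fold steps up to the top dose). Adherent lines were fixed and stained with the nucleic acid dye Syto60, suspension lines read with resazurin; signal relative to control wells, capped at 0 and 100%. One two-parameter sigmoid per drug and line, fitted in a mixed model over all curves with the slope shared within a line.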

[2] = compound: Nc1[nH]nc2nnc(-c3c(-c4ccccc4)nn4ccccc34)cc12 [FR-180204]; assay: as above; conditions: top dose 20 µM; top dose inferred
Description: as §1

Row | Cell Line | AUC [1] | IC50 [1] | AUC [2] | IC50 [2]
1 | LU-65 (large cell lung carcinoma, suspension) | 0.852 | > 1 µM | 0.97 | > 20 µM
2 | LU-99A (large cell lung carcinoma, adherent) | 0.073 | < 0.00391 µM | 0.979 | > 20 µM
3 | LU-134-A (small cell lung carcinoma, suspension) | 0.281 | 0.0143 µM | 0.985 | > 20 µM
4 | LU-135 (small cell lung carcinoma, suspension) | 0.093 | 0.00406 µM | 0.984 | > 20 µM
5 | LU-139 (small cell lung carcinoma, suspension) | 0.141 | < 0.00391 µM | 0.98 | > 20 µM
6 | LU-165 (small cell lung carcinoma, suspension) | 0.331 | 0.0199 µM | 0.985 | > 20 µM
7 | LXF-289 (lung adenocarcinoma, adherent) | 0.604 | 0.12 µM | 0.985 | > 20 µM
8 | LoVo (large intestine, adherent) | 0.798 | 0.484 µM | 0.987 | > 20 µM
9 | M14 (melanoma, adherent) | 0.335 | 0.0212 µM | 0.838 | 14.6 µM
10 | M059J (glioma, adherent) | 0.342 | 0.0219 µM | 0.979 | > 20 µM
11 | MC116 (B-cell lymphoma, suspension) | 0.013 | < 0.00391 µM | 0.999 | > 20 µM
12 | MC-CAR (haematopoietic neoplasm, suspension) | 0.029 | < 0.00391 µM | 0.944 | > 20 µM
13 | MC-IXC (neuroblastoma, adherent) | 0.036 | < 0.00391 µM | 0.995 | > 20 µM
14 | MCF7 (breast, adherent) | 0.539 | 0.0802 µM | 0.986 | > 20 µM
15 | MDA-MB-175-VII (breast, adherent) | 0.982 | > 1 µM | 0.949 | > 20 µM
16 | MDA-MB-231 (breast, adherent) | 0.542 | 0.0819 µM | 0.976 | > 20 µM
17 | MDA-MB-330 (breast, adherent) | 0.97 | > 1 µM | 0.978 | > 20 µM
18 | MDA-MB-361 (breast, adherent) | 0.969 | > 1 µM | 0.97 | > 20 µM
19 | MDA-MB-415 (breast, adherent) | 0.95 | > 1 µM | 0.983 | > 20 µM
20 | MDA-MB-436 (breast, adherent) | 0.843 | > 1 µM | 0.98 | > 20 µM
21 | MDA-MB-453 (breast, adherent) | 0.641 | 0.161 µM | 0.981 | > 20 µM
22 | MDST8 (large intestine, adherent) | 0.159 | 0.00567 µM | 0.955 | > 20 µM
23 | ME-1 (acute myeloid leukaemia, suspension) | 0.945 | > 1 µM | 0.953 | > 20 µM
24 | ME-180 (cervix, adherent) | 0.404 | 0.0336 µM | 0.957 | > 20 µM

Row | Cell Line | AUC [1] | IC50 [1] | AUC [2] | IC50 [2]
25 | MEG-01 (chronic myeloid leukaemia, suspension) | 0.105 | < 0.00391 µM | 0.907 | > 20 µM
26 | MEL-JUSO (melanoma, adherent) | 0.283 | 0.014 µM | 0.97 | > 20 µM
27 | MES-SA (uterus, adherent) | 0.991 | > 1 µM | 0.99 | > 20 µM
28 | MFE-280 (endometrium, adherent) | 0.058 | < 0.00391 µM | 0.953 | > 20 µM
29 | MFE-296 (endometrium, adherent) | 0.191 | 0.00685 µM | 0.982 | > 20 µM
30 | MFE-319 (endometrium, adherent) | 0.421 | 0.0383 µM | 0.986 | > 20 µM
31 | MFH-ino (soft tissue, adherent) | 0.201 | 0.00673 µM | 0.976 | > 20 µM
32 | MFM-223 (breast, adherent) | 0.197 | 0.008 µM | 0.989 | > 20 µM
33 | MG-63 (osteosarcoma, adherent) | 0.107 | < 0.00391 µM | 0.982 | > 20 µM
34 | MHH-ES-1 (Ewing sarcoma, adherent) | 0.049 | < 0.00391 µM | 0.937 | > 20 µM
35 | MHH-PREB-1 (B-cell leukaemia, suspension) | 0.023 | < 0.00391 µM | 0.927 | > 20 µM
36 | MKN1 (stomach, adherent) | 0.516 | 0.0692 µM | 0.979 | > 20 µM
37 | MKN45 (stomach, adherent) | 0.336 | 0.0193 µM | 0.983 | > 20 µM
38 | ML-1 (thyroid, adherent) | 0.937 | > 1 µM | 0.973 | > 20 µM
39 | MLMA (hairy cell leukaemia, semi-adherent) | 0.981 | > 1 µM | 0.886 | > 20 µM
40 | MMAC-SF (melanoma, adherent) | 0.506 | 0.065 µM | 0.984 | > 20 µM
41 | MN-60 (B-cell leukaemia, suspension) | 0.056 | < 0.00391 µM | 0.982 | > 20 µM
42 | MOG-G-CCM (glioma, adherent) | 0.952 | > 1 µM | 0.982 | > 20 µM
43 | MOG-G-UVW (glioma, adherent) | 0.07 | < 0.00391 µM | 0.987 | > 20 µM
44 | MOLM-13 (acute myeloid leukaemia, suspension) | 0.052 | < 0.00391 µM | 0.755 | 6.41 µM
45 | MOLP-8 (myeloma, suspension) | 0.063 | < 0.00391 µM | 0.91 | > 20 µM
46 | MOLT-4 (lymphoblastic leukaemia, suspension) | 0.029 | < 0.00391 µM | 0.974 | > 20 µM
47 | MOLT-13 (T-cell lymphoblastic leukaemia, suspension) | 0.047 | < 0.00391 µM | 0.948 | > 20 µM
48 | MONO-MAC-6 (acute myeloid leukaemia, suspension) | 0.071 | < 0.00391 µM | 0.914 | > 20 µM

Row | Cell Line | AUC [1] | IC50 [1] | AUC [2] | IC50 [2]
49 | MPP-89 (mesothelioma, adherent) | 0.846 | > 1 µM | 0.975 | > 20 µM
50 | MRK-nu-1 (breast, suspension) | 0.343 | 0.0239 µM | 0.986 | > 20 µM
51 | MS751 (cervix, adherent) | 0.788 | 0.402 µM | 0.99 | > 20 µM
52 | MS-1 (small cell lung carcinoma, suspension) | 0.064 | < 0.00391 µM | 0.975 | > 20 µM
53 | MV-4-11 (leukaemia, suspension) | 0.032 | < 0.00391 µM | 0.897 | 17 µM
54 | MZ1-PC (pancreas, adherent) | 0.729 | 0.332 µM | 0.868 | > 20 µM
55 | MZ2-MEL (melanoma, adherent) | 0.355 | 0.0231 µM | 0.961 | > 20 µM
56 | MZ7-mel (melanoma, adherent) | 0.898 | > 1 µM | 0.863 | 18.3 µM
57 | Mewo (melanoma, adherent) | 0.452 | 0.0449 µM | 0.983 | > 20 µM
58 | Mo-T (hairy cell leukaemia, suspension) | 0.849 | 0.772 µM | 0.957 | > 20 µM
59 | NAMALWA (Burkitt lymphoma, suspension) | 0.023 | < 0.00391 µM | 0.989 | > 20 µM
60 | NB1 (neuroblastoma, semi-adherent) | 0.138 | < 0.00391 µM | 0.928 | > 20 µM
61 | NB5 (neuroblastoma, adherent) | 0.039 | < 0.00391 µM | 0.892 | > 20 µM
62 | NB6 (neuroblastoma, adherent) | 0.908 | > 1 µM | 0.979 | > 20 µM
63 | NB7 (neuroblastoma, adherent) | 0.463 | 0.0492 µM | 0.984 | > 20 µM
64 | NB10 (neuroblastoma, adherent) | 0.028 | < 0.00391 µM | 0.979 | > 20 µM
65 | NB12 (neuroblastoma, adherent) | 0.579 | 0.111 µM | 0.958 | > 20 µM
66 | NB13 (neuroblastoma, adherent) | 0.042 | < 0.00391 µM | 0.973 | > 20 µM
67 | NB(TU)1-10 (neuroblastoma, adherent) | 0.161 | 0.00703 µM | 0.92 | > 20 µM
68 | NB-4 (acute myeloid leukaemia, suspension) | 0.017 | < 0.00391 µM | 0.918 | > 20 µM
69 | NCC021 (kidney, adherent) | 0.97 | > 1 µM | 0.967 | > 20 µM
70 | NCI-H23 (lung adenocarcinoma, adherent) | 0.22 | 0.00959 µM | 0.988 | > 20 µM
71 | NCI-H28 (mesothelioma, adherent) | 0.852 | > 1 µM | 0.971 | > 20 µM
